For one assay, the system named is SF-268 CNS. The assay can be described thus: NCI-60 one-dose screen, 48 h (100 = growth as untreated, 0 = no growth, -100 = all killed). To be noted: 2.5 mM.
The test system of another assay is SF-295 CNS. The assay is described as above. To be noted: 2.5 mM.

Some structures have more than one record in an assay (separate samples or runs), and their calls can disagree.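 Treatment: one concentration, 48 hours, 96-well format. Scoring: percent growth, with anything below 10 considered active.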 Not every entry of the source has a single result; some have several. The list is limited to them. An entry can have further records. This drug was run again and again over the years, at the concentration stated with the values; each value is one run. Counts like (3×) stand for listed records that agree.

For the molecule `O=c1[nH]cc(F)c(=O)[nH]1`, the growth result in the assay on SF-268 CNS (runs of 1995) was “inactive: 38.9, 36, 20.3, 59.5, 35, 21.1, 36.9, 30, 16.8, 27, 12, 32.6, 33.7, 60.1, 28.1, 50.5, 45.9, 26.8, 24.3, 39.8, 30.3, 15.9, 29.6, 59.6, 10.8, 29.1, 31.9, 41.1, 29.2, 33.3, 34.6, 35.7, 47.6, 29.3, 28.9, 22.7, 37.5, 41.2% and active: -14.2%, -22.3%”; with SF-268 CNS (runs of 1996) it was “inactive: 47.7, 31.8 (2×), 43.9, 37, 44.9 (2×), 35.4, 20.2, 46.8, 29.7, 15.2, 38.2, 20.5, 39.5, 33, 25.8, 32, 24 (2×), 19.4, 24.4, 28, 43.5, 45.7, 29, 18.6, 12.1, 42.1, 27.8, 45.9, 32.4, 23.3, 21.3, 26.1, 36.4, 20.9, 41.9, 41.5, 36.8, 40.4, 36.2, 60, 44.8, 16.2, 33.8, 56.5, 38.1 (2×), 57.1% and active: -8.05%, 9.31%, 7.88%”; in the assay with SF-268 CNS (runs of 1997), “inactive: 20.3, 35.7, 41.7, 55.4, 26.6, 22.2, 17.8, 13.1, 51.1, 48.7, 27, 45.4, 28 (2×), 22.7, 37, 19.3, 38.2, 44.4, 25.4, 11.9, 29.4, 25.6, 38.5, 37.1, 28.1, 29.7, 36.4, 10, 38.3, 29, 32.1, 37.7, 10.8, 23, 34.7, 42.5, 56.7, 20.1, 30.9, 11.5% and active: -5.12%, 7.14%”; with SF-268 CNS (runs of 1998) it was “inactive: 48.2, 34.3, 36.2, 23.3, 21.1, 37.2, 16.9, 25.3, 37.9, 78.2, 37.4, 34.8, 41.9, 32.3, 58, 57, 61.2, 37.8, 51.2, 61% and active: -1.56, -16.1, -14.8, 5.35%”; in the assay with SF-268 CNS (runs of 1999), “inactive: 39.2 (2×), 21.7, 44.4, 22, 28.2, 42.2, 38.2, 25.7, 44, 37.1, 23.9, 33.5, 32.7, 29.3 (3×), 27.2, 32.3, 28.9, 30, 27.1, 32.8, 37.4, 29.9, 40, 54.2, 33.6, 54.3, 37.3, 36.2% and active: 2.1, 3.63, 3.73, 7.13, 3.71, 3.77, 4.5, 2.9, -0.18, 4.31, 4.92%”; in the assay on SF-268 CNS (runs of 2000), “active: 3.35%, 7.77%, 4.11% and inactive: 11.5%”. Also, the growth entry in the assay with SF-295 CNS (runs of 1991) was “inactive: 25.5, 14.1, 15.2, 17.9, 22.6, 24, 11.9, 35.3, 20.9, 20.4 (2×), 16.4, 29.6, 31.6 (2×), 26.2, 25.7, 18.3% and active: -12.2%, -0.446%”; in the assay on SF-295 CNS (runs of 1992), “inactive: 24.6 (3×), 31.1, 31.4, 22.5, 33.2, 31.6, 28.5, 36.8, 13.9, 27.5 (3×), 12.7 (2×), 14, 24.9 (3×), 46, 27.9 (2×), 27.8 (2×), 15.8, 24.4, 47.5, 27.6 (2×), 34, 13.1, 28.8, 32, 36.2, 30.7, 15.3, 46.3, 17.2, 17, 25.5, 33.7, 24.1, 29.9, 35.9, 28.9, 34.9, 25.3, 26.3, 28 (2×), 26.8, 21.3, 20.2, 33.4 (2×), 126, 10.8, 21.6, 35.5, 29.3, 30.2, 26.9 (2×), 47.8, 39.3, 25.4, 22.2, 18, 25.2, 22.7, 28.2, 29.4, 48.7, 16.4, 21, 19.9, 26.2, 22.3, 19.2, 23.2 (2×), 30.5 (2×), 15.4, 29.7, 35.3, 22.8, 11.7, 33.5, 35.1, 35, 34.4, 20.5, 27.3 (3×), 21.1, 25.1, 38.8, 31.2, 38.2, 23.9, 36.1, 17.3, 11.4, 28.7% and active: -2.91%, 1.83%”; in the assay with SF-295 CNS (runs of 1993), “inactive: 27, 23.3, 35.4, 32.2, 27.5, 29.8 (2×), 20.6, 21.9, 26.1, 27.4, 18.2 (2×), 30.6, 13, 36.1, 28.3, 10.5, 29.1, 22, 17.7, 26.6 (2×), 47.2, 32.6, 20.7, 39.9, 26.9, 24.2, 17.8, 25.9, 20.2, 12.1, 22.7, 99.8, 38.5, 16.3, 43, 11.7, 28.2, 14.3, 21.2, 29, 20.5, 16%”; with SF-295 CNS (runs of 1994), “inactive: 28.8, 14.2, 15.3, 30.7, 25.2, 27.4, 19.1, 21.6, 12.3, 31, 32.6, 11.9, 33.9, 19.9, 10.1, 32.9, 26.2, 34.8, 27.5, 23.5, 30.2, 24.6, 20.7, 34, 25.3% and active: 8.41, 4.1, 6.82, 4.37, -29.3%”; in the assay on SF-295 CNS (runs of 1995), “inactive: 37.6, 25.8, 16.6, 17.6, 23.3, 41.4, 24.9, 14.1, 38.3, 27.7, 32.2, 118, 21.1, 38.5, 32.1 (2×), 22.4, 15.8, 17.9, 18.9, 20.7, 33.8, 44.8, 45.2, 35.2, 28.3, 30.1, 14.7, 42.8, 27.4, 26.4, 14.6, 33, 12.8, 61.5% and active: 9.71%, 1.5%, 9.09%”; in the assay on SF-295 CNS (runs of 1996) it was “inactive: 20.4 (2×), 21.2, 23 (2×), 26.2, 23.4, 80.8, 26.9, 38.3, 24.8 (3×), 24.5 (2×), 16.7, 35.2, 21.1, 28, 26.3, 42, 31.5, 27.9, 17.8, 27.1 (2×), 24.7, 25.3, 20.8 (2×), 38.9, 29.1, 49.3, 14.9, 11.3, 36.5, 30.3, 24.2, 28.8, 27.2, 20.6, 24.1, 18.9, 29.9, 41.7, 22.1, 24.4, 38.4, 15.6, 31.1, 44.7, 18.1, 26.4, 22.5, 46.6, 14.4% and active: -0.319%, 5.23%, 2.83%”. In addition, the growth result in the assay with SF-295 CNS (runs of 1997) was “inactive: 34.6, 32.4, 26.6, 18.1, 26 (2×), 30.1, 18.9, 23.1, 26.1, 15.2, 25.8, 15.1, 17.4, 23, 29.8, 34, 31.2, 10.6, 22.5, 27.5, 34.4, 25, 15.7, 22.1, 21.1, 23.5, 14.7, 12.2, 19.9, 26.8, 19.2, 21, 16.1, 19.5 (2×), 21.5, 26.7, 23.3, 24.7, 29, 28.3, 19.3, 32.8%”; in the assay on SF-295 CNS (runs of 1998) it was “inactive: 14.2, 24.6, 26.1, 15.5, 25.6, 37.4, 28.7, 21.9, 29.2, 35.4, 31.3, 25.4, 26.9, 37, 31.1 (2×), 42, 29.9, 23.9, 29, 13, 34.9% and active: -25.9%, 7.69%, 6.61%”; with SF-295 CNS (runs of 1999) it was “inactive: 22.4, 29.7, 20.6, 23.6, 36.8% and active: -20, 3.44, 1.16, -42.4, -28.7, 1.47, 1.17, 3.53, -58, -100, -38%”.

Source of the values: PubChem BioAssay (NCI).
